This note sets out measurements from the supplement of paper PMC9446081.

Among all 39,000 compounds or so, about 220 (0.56%) showed activity. The list shows a part of the results.
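Note: static incubation at 37 °C against the wild-type strain, values averaged over two biological replicates.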

The subject of this assay is Escherichia coli K-12 BW25113. Description: relative growth (OD600 normalised to plate interquartile mean) (fraction); higher = less growth inhibition, active = 0.2 or less. To be noted: 50 µM; LB; incubation time: overnight (16-24 h).
As to `COc1ccc(NC(=O)N(C)C[C@@H]2Oc3ccc(NC(=O)Nc4cccc5ccccc45)cc3CC(=O)N([C@@H](C)CO)C[C@@H]2C)cc1`, the relative growth is inactive: 0.993.
With `CCc1cc(C(N)=S)ccn1` the figure was inactive: 0.98.
With `C[C@H]1CN([C@@H](C)CO)C(=O)c2cc(-c3cccnc3)cnc2O[C@H]1CN(C)Cc1ccc(-c2ccccc2)cc1` the figure was inactive: 1.02; with `CN(C)CCN1C(=O)CO[C@H]2CN(C(=O)NCc3cccnc3)C[C@@H]21`, inactive: 0.957; with `C[C@H]1CN([C@@H](C)CO)C(=O)Cc2cc(NC(=O)Cc3cn(C)c4ccccc34)ccc2O[C@@H]1CN(C)Cc1ccc(C(=O)Nc2ccccc2N)cc1`, inactive: 1.02.
With `CNC(=O)CN1CCOC[C@@]2(C1)CN(C(=O)c1ccn[nH]1)CCO2` the figure was inactive: 0.952; with `CC(=O)Nc1c(I)c(NC(C)=O)c(I)c(C(=O)O)c1I`, inactive: 1.08; with `C[C@H]1CCCCO[C@@H](CN(C)C(=O)NC2CCCCC2)[C@@H](C)CN([C@@H](C)CO)C(=O)c2cc(NC(=O)Nc3ccccc3)ccc2O1`, inactive: 0.857.
As to `Nc1nncn1C(=O)c1ccccc1F`, the relative growth was inactive: 0.975.
In the case of `CN1C(=O)c2cc(NC(=O)c3cscn3)ccc2OC[C@@H]2O[C@H](CC(=O)N3CCOCC3)CC[C@@H]21` it was inactive: 0.959; in that of `O=C(OC1Cc2c(O)cc(O)cc2OC1c1cc(O)c(=O)c2c(O)c(O)cc(C3Oc4cc(O)cc(O)c4CC3O)c2c1)c1cc(O)c(O)c(O)c1` (configuration not stated), inactive: 0.936; in that of `C[C@@H]1CCCCO[C@H](CN(C)Cc2ccc(C(F)(F)F)cc2)[C@@H](C)CN([C@H](C)CO)C(=O)c2cc(NS(C)(=O)=O)ccc2O1`, inactive: 1.02.
As for `C[C@H](CO)N1C[C@H](C)[C@H](CN(C)Cc2ccc(C(=O)O)cc2)OCc2ccccc2-c2c(n(C)c3ccccc23)C1=O`, the relative growth was inactive: 0.959.
In the case of `C[C@@H]1CCCCO[C@H](CN(C)C(=O)Nc2ccc3c(c2)OCO3)[C@@H](C)CN([C@H](C)CO)C(=O)c2cc(NC(=O)Cc3ccccc3)ccc2O1` it was inactive: 1.02; in that of `Cc1noc(C)c1S(=O)(=O)Nc1ccc2c(c1)CC(=O)N([C@H](C)CO)C[C@@H](C)[C@H](CN(C)S(=O)(=O)c1ccc(F)cc1)O2`, inactive: 0.989.
In the case of `C[C@@H]1CCCCO[C@@H](CN(C)C(=O)C2CCCCC2)[C@@H](C)CN([C@@H](C)CO)C(=O)c2cc(NC(=O)Nc3ccc(F)cc3)ccc2O1` it was inactive: 0.997.
With `C[C@H]1CN([C@@H](C)CO)C(=O)c2cc(C#CCc3ccccc3)cnc2O[C@@H]1CN(C)CC1CCOCC1` the figure was inactive: 1.02.
